# Assay results from the supplement of paper PMC11417369.
# ± gives the standard deviation of the averaged measurements. The list shows a part of the results.
# Tested on: PfAP2-I AP2 domain 3 (GST-tagged)
# Experiment: gcPBM binding intensity (ln(normalized median fluorescence intensity)); higher = stronger DNA binding
# How it was run: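 An Agilent 4 × 180k array carrying primer-extended double-stranded 36-bp intergenic genomic probes and negative controls received GST-tagged P. falciparum DNA-binding domains expressed in E. coli, about 25 μg on average, for 1 h. The binding buffer contained 1× PBS, 1% milk, 0.2 mg/ml BSA, 0.5% salmon testes DNA and 0.03% Triton X-100. Binding intensity is the top Masliner-normalised natural-log median intensity across replicate spots of either probe orientation, read after Alexa488 anti-GST antibody staining and a 488 nm scan.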
row,Sequence,gcPBM binding intensity (ln)
1,TAAGGATAAAATAAATGTACATATGTAAAATTATTA [XGTACX_site4170],7.49 ± 0.36
2,TTGTTTGATATCTTTGTCACGAAAAAAATATATATA [GTGCAC_negctrl_site54],7.83 ± 0.64
3,ATACTAAAGAAACACACACACATATATATATAGAAT [CACACA_site100],7.84 ± 0.52
4,TTTACACCCTAAAAATGTACAAGAAAGATTATATTA [XGTACX_site1102],7.57 ± 0.38
5,ATTTTTTTCCTAATGGTGCGAATAAATATCCATACC,9.79 ± 0.23
6,TTAACAGTAAAACACAGTACATATATACTTAAAACA [XGTACX_site1930],7.6 ± 0.48
7,TTTTTTTATTATACTAGTACATATATATACAGCACA [XGTACX_site3464],9.66 ± 0.81
8,AAAAAAAAAAAAGGAACACACAAGTAACAATAAATT [CACACA_site2481],7.76 ± 0.37
9,AAAGCTTACATATACACACATACATAAATTCATAAA [CACACA_site2469],7.68 ± 0.57
10,TTTGTCATTTTATTATGTACTCAGCATATAGGGGGG [XGTACX_site505],10.4 ± 0.16
11,GATTTTTAAAATATCACACATAAAAAAAAAAAAAAA [CACACA_site5516],8 ± 0.38
12,AAAAAAATTCTGACTTGTACATATAAAATTTACAAA [XGTACX_site4408],7.42 ± 0.39
13,TAATTTAATAATTAGACACACATGTGGAAAATAAAA [CACACA_site5401],8.5 ± 0.34
14,ACATATATATAAAGGTGTACACATATATATATATAT [XGTACX_site4779],9.46 ± 0.2
15,ATTTATTACAAATGAATGCACTATATCTTAATTTTG,9.91 ± 0.23
16,TAAGAAAAAAGTAAATGTACAGAGAAAATTATCTAT [XGTACX_site7374],7.62 ± 0.79
17,ATATATTTCCTGAGGAGTACTATGAAAGACAAAAAA [XGTACX_site5628],8.04 ± 0.44
18,ATAATTTTGATTATCACACATATATATATATATATG [CACACA_site5882],8.12 ± 0.52
19,GTAAAAAGATAATGAAGTACATTTTTTCATTTTTAT [XGTACX_site5579],7.64 ± 0.43
20,AAAAAAAAAAAACACACACACACACCCATATACATA [CACACA_site2664],7.94 ± 0.35
21,CATATCCTTACGAACTGTACAATATTAAGAATAAAA [XGTACX_site1651],7.8 ± 0.33
22,ATATATTCAATTCATACACACACAATTTAAGAATGA [CACACA_site9289],7.67 ± 0.49

row,Sequence,gcPBM binding intensity (ln)
1,ATATTAAGGTTTATATTTTAACTTATTATTTTATTC [CACACA_negctrl_site795],7.41 ± 0.54
2,ATTTATTTTTTTATCACACATTTGTGAAATGTGCAT [CACACA_site5869],7.83 ± 0.73
3,ATAAAAAAATCAGACACACACACGTAAACCCATACA [CACACA_site2773],8.04 ± 0.39
4,ACATATTTATATATGTGTACATAAATATTCTTTTAA [XGTACX_site8238],7.71 ± 0.39
5,GTTACTGCATACATAACACACATATTCAAAACCCAT [CACACA_site5856],8.75 ± 0.26
6,TTTTCCTTTACATAATGTACACAAAAAAAAAAAAAA [XGTACX_site716],8.24 ± 0.51
7,TCTTTTTTTTGAATTTGTACATAAGACAATAAAAAA [XGTACX_site4682],7.83 ± 0.3
8,CATCATAGAGTGGAGTGTACAAATATGTCAACATAT [XGTACX_site2264],7.99 ± 0.55
9,AATACAGACAGACACACACACAAAATAAAATACAAA [CACACA_site245],7.99 ± 0.29
10,TAGAAGCATTGACACACACACATACATACACATACA [CACACA_site6802],8.05 ± 0.42
11,TATATATATATATAATGTACATAATAATAATACATC [XGTACX_site5587],9.19 ± 0.18
12,GTCTATAACTATTGCGCACACTTTAAAAAAAAAGAA [CACACA_site1003],9.9 ± 0.23
13,CTAGACTTTATTAATTGTACATATGTGTATTTTATA [XGTACX_site480],7.63 ± 0.47
14,ATCCATCTTTTATATAGTACTTTATAATATATATAT [XGTACX_site8064],8.77 ± 0.41
15,CAATGTTAATATAATACACACAATATGTATTTGTCT [CACACA_site1162],7.62 ± 0.65
16,TTGTTAATATATATATGTACTTATTTATTTATTTAT [XGTACX_site2274],7.64 ± 0.29
17,TTTGAATTTTTTAACACACACATGTCTGGATATATA [CACACA_site1645],7.93 ± 0.47
18,GAAAAAAAAAAAAAAAGTACATGTCATAAATTGTAT [XGTACX_site1461],7.82 ± 0.64
19,TTTTCCTTAACACACGTTTATATAAAAAATTAAAAT [XGTACX_negctrl_site115],8.2 ± 0.3
20,AAATTAAAATATATATGTACATATATATATATATAT [XGTACX_site7844],9.43 ± 0.55
21,GAGCTTTGGATGAAAGCATGCGATGAATGGATAAAA [TGCATGCA_site786],7.91 ± 1
22,ATTTATTTCAATAAACTTCTTTTCTTTAACAATTAC [CACACA_negctrl_site1222],7.38 ± 0.74
